± gives the standard deviation of the averaged measurements. This is one part of the list.
Experiments:
[1] = test system: murine small intestinal organoids (ENR+CD Paneth differentiation); experiment: cellular ATP (CellTiter-Glo 3D) relative to plate median (log10 fold change); higher = more viable cells; conditions: 6 d
[2] = test system: murine small intestinal organoids (ENR+CD Paneth differentiation); experiment: carbachol-stimulated secreted lysozyme activity relative to plate median (log10 fold change); higher = more Paneth cell lysozyme secretion; conditions: 6 d, carbachol 10 µM
[3] = test system: murine small intestinal organoids (ENR+CD Paneth differentiation); experiment: basal (non-stimulated) secreted lysozyme activity relative to plate median (log10 fold change); higher = more Paneth cell lysozyme secretion; conditions: 6 d
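For basal (non-stimulated) secreted lysozyme activity relative to plate median in this document: ISC-enriched organoid precursors grown as 2.5D pseudo-monolayer on Matrigel, compound given on day 0 and day 3, plate values LOESS-normalized before median fold change, three murine donors.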
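For cellular ATP (CellTiter-Glo 3D) relative to plate median in this document: 2.5D pseudo-monolayer culture of ISC-enriched organoids partly embedded atop Matrigel, compound added on day 0 and again on day 3, per-plate LOESS correction before median fold change.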

SMILES	cellular ATP (log10) ([1]; 0.08 µM)	cellular ATP (log10) ([1]; 0.4 µM)	cellular ATP (log10) ([1]; 2 µM)	cellular ATP (log10) ([1]; 10 µM)	carbachol-stimulated secreted lysozyme activity (log10) ([2]; 0.08 µM)	carbachol-stimulated secreted lysozyme activity (log10) ([2]; 0.4 µM)	carbachol-stimulated secreted lysozyme activity (log10) ([2]; 2 µM)	carbachol-stimulated secreted lysozyme activity (log10) ([2]; 10 µM)	basal (log10) ([3]; 0.08 µM)	basal (log10) ([3]; 0.4 µM)	basal (log10) ([3]; 2 µM)	basal (log10) ([3]; 10 µM)
Cc1ccccc1C(=O)Nc1ccc(C(=O)N2CCCC(O)c3cc(Cl)ccc32)c(C)c1 (configuration not stated) [Tolvaptan]	0.115 ± 0.061	-0.0355 ± 0.088	-0.0983 ± 0.18	-0.169 ± 0.26	0.0494 ± 0.19	0.202 ± 0.24	0.13 ± 0.29	-0.0847 ± 0.12	0.0173 ± 0.06	-0.0491 ± 0.023	-0.0515 ± 0.044	-0.131 ± 0.037
CO[C@H]1C[C@@H]2CC[C@@H](C)[C@@](O)(O2)C(=O)C(=O)N2CCCC[C@H]2C(=O)O[C@H]([C@H](C)C[C@@H]2CC[C@@H](OC(=O)C(C)(CO)CO)[C@H](OC)C2)CC(=O)[C@H](C)/C=C(\C)[C@@H](O)[C@@H](OC)C(=O)[C@H](C)C[C@H](C)/C=C/C=C/C=C/1C	0.33 ± 0.51	0.358 ± 0.28	0.409 ± 0.23	0.292 ± 0.26	0.0869 ± 0.0064	0.104 ± 0.17	0.0967 ± 0.12	-0.0545 ± 0.26	0.07 ± 0.081	0.143 ± 0.1	0.0842 ± 0.11	0.0412 ± 0.24
CCN(CC)C(=O)/C(C#N)=C/c1cc(O)c(O)c([N+](=O)[O-])c1 [Entacapone]	-0.115 ± 0.26	-0.0646 ± 0.5	0.206 ± 0.072	-0.391 ± 0.099	0.0808 ± 0.18	0.0859 ± 0.12	0.063 ± 0.091	0.0924 ± 0.034	0.136 ± 0.1	0.0117 ± 0.11	0.0855 ± 0.047	0.0999 ± 0.15
CCCCc1nc(Cl)c(CO)n1Cc1ccc(-c2ccccc2-c2nnn[nH]2)cc1 [Losartan Potassium (DuP 753)]	-0.152 ± 0.29	-0.175 ± 0.41	-0.0806 ± 0.1	-0.137 ± 0.18	0.0238 ± 0.061	0.0478 ± 0.019	-0.0728 ± 0.009	-0.0202 ± 0.051	0.0515 ± 0.13	0.0378 ± 0.086	-0.0416 ± 0.061	0.062 ± 0.089
CCCCCCCCCCCC1=C(O)C(=O)C=C(O)C1=O [Embelin]	-0.323 ± 0.56	-0.723 ± 1.2	-0.325 ± 0.43	-0.72 ± 1.3	0.0908 ± 0.14	0.00369 ± 0.043	-0.0367 ± 0.096	-0.0733 ± 0.0084	-0.0148 ± 0.2	-0.0818 ± 0.12	-0.0554 ± 0.15	-0.094 ± 0.076
COc1cc(OC)c(NC(=O)Nc2cc(C)on2)cc1Cl	-0.0786 ± 0.27	0.0854 ± 0.22	0.114 ± 0.13	0.138 ± 0.18	0.109 ± 0.098	0.122 ± 0.17	0.0904 ± 0.084	-0.039 ± 0.045	0.108 ± 0.088	-0.0113 ± 0.06	0.0682 ± 0.074	-0.0603 ± 0.051
CC(=O)c1c(C)c2cnc(Nc3ccc(N4CCNCC4)cn3)nc2n(C2CCCC2)c1=O	0.169 ± 0.13	-0.35 ± 0.49	-0.0833 ± 0.58	-0.677 ± 0.22	0.028 ± 0.11	-0.0289 ± 0.045	-0.161 ± 0.14	-0.274 ± 0.026	-0.00631 ± 0.1	-0.0285 ± 0.044	-0.0505 ± 0.058	-0.132 ± 0.062
COc1cc(N2CCC(N)CC2)ccc1Nc1ncc(Cl)c(-c2c[nH]c3ccccc23)n1	-0.275 ± 0.46	-0.341 ± 0.44	-0.772 ± 0.86	-0.96 ± 0.27	-0.22 ± 0.12	-0.4 ± 0.14	-0.415 ± 0.1	-0.428 ± 0.14	-0.147 ± 0.086	-0.19 ± 0.11	-0.232 ± 0.13	-0.209 ± 0.16
CCn1c(=O)c2c(nc(/C=C/c3ccc(OC)c(OC)c3)n2C)n(CC)c1=O [Istradefylline]	-0.045 ± 0.24	0.0661 ± 0.1	-0.157 ± 0.22	-0.0379 ± 0.19	0.0379 ± 0.091	-0.094 ± 0.019	-0.0607 ± 0.08	-0.0168 ± 0.14	-0.015 ± 0.12	-0.0349 ± 0.01	-0.00254 ± 0.15	-0.0406 ± 0.059
C[C@]1(O)C[C@@H](c2nc(-c3ccc4ccc(-c5ccccc5)nc4c3)c3c(N)nccn32)C1 [OSI-906 (Linsitinib)]	-0.324 ± 0.062	-0.158 ± 0.23	-0.277 ± 0.18	-0.391 ± 0.16	-0.0883 ± 0.1	-0.16 ± 0.051	-0.361 ± 0.12	-0.42 ± 0.091	0.0126 ± 0.11	-0.0926 ± 0.051	-0.216 ± 0.12	-0.229 ± 0.079
CCC(CC)CC1(C(=O)Nc2ccccc2SC(=O)C(C)C)CCCCC1	0.112 ± 0.36	-0.00588 ± 0.2	0.0788 ± 0.23	0.136 ± 0.046	-0.047 ± 0.028	0.0951 ± 0.3	0.12 ± 0.28	-0.189 ± 0.039	0.0545 ± 0.09	-0.0372 ± 0.1	-0.034 ± 0.0088	-0.0738 ± 0.063
CC1C(=O)OC2C(O)C34C5CC(C(C)(C)C)C36C(OC(=O)C6O)OC4(C(=O)O5)C12O (configuration not stated) [Ginkgolide B]	-0.0762 ± 0.21	0.0339 ± 0.14	-0.154 ± 0.46	0.177 ± 0.27	-0.0602 ± 0.053	0.0305 ± 0.0022	0.0013 ± 0.082	-0.0745 ± 0.081	0.0406 ± 0.12	0.109 ± 0.16	0.0606 ± 0.024	-0.0374 ± 0.08
O=C(c1cncc(Br)c1)N1CCC(N2CCCC2)CC1	-0.0532 ± 0.22	0.047 ± 0.082	-0.263 ± 0.7	0.0833 ± 0.067	0.105 ± 0.13	0.061 ± 0.13	0.0667 ± 0.09	-0.0274 ± 0.11	0.0587 ± 0.14	0.00788 ± 0.081	-0.00533 ± 0.077	0.0227 ± 0.076
CC(NC(=O)C(O)c1cc(F)cc(F)c1)C(=O)NC1C(=O)N(C)c2ccccc2-c2ccccc21 (configuration not stated)	0.0349 ± 0.24	-0.172 ± 0.39	-0.172 ± 0.28	-0.259 ± 0.31	0.102 ± 0.16	0.106 ± 0.17	-0.061 ± 0.056	-0.167 ± 0.12	0.0398 ± 0.12	-0.0499 ± 0.052	-0.0687 ± 0.052	-0.109 ± 0.054
Cc1cccc(-c2nn3c(c2-c2ccnc4ccc(C(N)=O)cc24)CCC3)n1	0.0913 ± 0.02	0.137 ± 0.21	0.0172 ± 0.19	0.0946 ± 0.12	0.158 ± 0.088	0.226 ± 0.11	0.0952 ± 0.042	0.221 ± 0.15	0.227 ± 0.27	0.14 ± 0.13	0.0918 ± 0.045	0.162 ± 0.07
Cc1cnc(-c2cc(N3CCN(C(=O)CCS(C)(=O)=O)CC3)ncc2Cl)c(C)c1	-0.101 ± 0.27	-0.04 ± 0.093	0.0548 ± 0.12	-0.0765 ± 0.26	0.317 ± 0.0082	-0.0414 ± 0.018	0.0445 ± 0.06	0.0743 ± 0.08	0.0785 ± 0.12	-0.0294 ± 0.019	0.0108 ± 0.051	0.0737 ± 0.046

— the supplement of paper PMC9046079
